Test results taken from PubChem BioAssay AID504339 (National Center for Advancing Translational Sciences (NCATS), 2011).
Where “and” joins values, the source holds several entries; their conditions need not be identical. Equal values may be shown once. About 17,000 (4.4%) of roughly 390,000 compounds were called active. The inconclusive results got no clear call from the source; some entries with a clear call stand among them for comparison. The call rests on the fitted dose curve; in most records, active means well fitted inhibition curve with a large enough effect; inconclusive means small, poorly fitted or top-dose-only effect; inactive means no such curve, though single readings can be large or run the other way. Potencies beside an inconclusive call are fits to weak or partial responses and may not hold up. The source holds several records for some structures; these can differ, active in one and inactive in another.

target: Lysine-specific demethylase 4A (Homo sapiens) (UniProt O75164); test: qHTS Assay for Inhibitors of JMJD2A-Tudor Domain; settings: AlphaScreen JMJD2A-Tudor / H3K4me3 peptide binding; series mostly up to 114 µM; further: nearly all actives have a fitted effect of over 50% in size
Potency means the concentration at half of the fitted maximal effect; tags describe the fitted curve by direction and shape.

Chain of UniProt O75164 (O75164 whole entry, looked up, the tested form may be a part): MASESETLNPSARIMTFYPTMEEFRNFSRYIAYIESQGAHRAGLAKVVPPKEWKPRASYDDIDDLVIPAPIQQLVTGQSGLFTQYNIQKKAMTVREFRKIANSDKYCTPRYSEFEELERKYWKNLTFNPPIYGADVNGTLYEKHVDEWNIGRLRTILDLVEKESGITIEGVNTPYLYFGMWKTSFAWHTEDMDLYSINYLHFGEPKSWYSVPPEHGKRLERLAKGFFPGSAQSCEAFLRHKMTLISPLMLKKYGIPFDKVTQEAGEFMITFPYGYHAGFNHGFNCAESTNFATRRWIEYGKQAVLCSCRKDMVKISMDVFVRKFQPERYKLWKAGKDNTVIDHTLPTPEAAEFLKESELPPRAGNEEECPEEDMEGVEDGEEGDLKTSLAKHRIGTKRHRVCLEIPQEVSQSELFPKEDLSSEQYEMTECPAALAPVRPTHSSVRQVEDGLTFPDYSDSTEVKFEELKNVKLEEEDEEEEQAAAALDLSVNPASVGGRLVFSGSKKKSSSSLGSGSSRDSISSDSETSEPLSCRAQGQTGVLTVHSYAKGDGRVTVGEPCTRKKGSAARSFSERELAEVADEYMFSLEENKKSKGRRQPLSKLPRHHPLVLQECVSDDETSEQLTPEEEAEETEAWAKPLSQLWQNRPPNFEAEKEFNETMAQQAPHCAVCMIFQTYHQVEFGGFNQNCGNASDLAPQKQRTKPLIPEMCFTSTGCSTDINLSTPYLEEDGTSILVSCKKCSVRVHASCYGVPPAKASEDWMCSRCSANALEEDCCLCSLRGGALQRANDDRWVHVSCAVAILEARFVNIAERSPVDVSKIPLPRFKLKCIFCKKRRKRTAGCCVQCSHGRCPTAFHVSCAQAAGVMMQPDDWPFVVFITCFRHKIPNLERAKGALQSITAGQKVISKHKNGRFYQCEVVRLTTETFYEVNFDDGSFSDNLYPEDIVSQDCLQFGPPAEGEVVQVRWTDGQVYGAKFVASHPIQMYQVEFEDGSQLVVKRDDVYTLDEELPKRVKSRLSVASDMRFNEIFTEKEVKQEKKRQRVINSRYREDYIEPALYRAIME

| SMILES | Potency |
| --- | --- |
| CC(NS(=O)(=O)c1ccccc1)C(=O)NC1CCCC1 (stereo not given) | inactive |
| COc1ccc(-c2nn(-c3ccccc3)cc2C(=O)Nc2cccc(C(=O)O)c2)cc1[N+](=O)[O-] | active: 50.1 µM |
| COc1cc(/C=C/C(=O)Nc2nnc(CC(C)(C)C)s2)cc(OC)c1OC | inconclusive: 79.4 µM [inhibitor, single point] |
| O=C(C(Cc1ccccc1)n1cccc1)N1CCN(C2CCCCC2)CC1 (stereo not given) | inconclusive: 50.1 µM [inhibitor, partial curve] |
| Cc1onc(-c2c(Cl)cccc2Cl)c1C(=O)N1CCOCC1 | inactive |
| CN1C(=S)N(c2cccnc2)C(=O)/C1=C\c1ccc(N(C)C)cc1 | inconclusive: 89.1 µM [inhibitor, partial curve] |
| Cc1occc1C(=O)N1CCCC(Nc2ccc(C(C)C)cc2)C1 (stereo not given) | inconclusive: 89.1 µM [inhibitor, partial curve] |
| Cc1cc(Cl)cc(C)c1OCC(=O)O | inconclusive: 89.1 µM [inhibitor, single point] |
| O=C1CNC(=S)N1CCc1ccc(O)c(O)c1 | inconclusive: 11.2 µM [inhibitor, full curve] |
| CN(C)c1ccc(CNCC2CCCO2)cc1 (stereo not given) | inactive |
| O=C(Cn1cnc([N+](=O)[O-])c1)Nc1ccccc1C(F)(F)F | inconclusive: 31.6 µM [inhibitor, partial curve] |
| Cc1cc(Cl)c2oc(C(=O)N(C)C3CCOC3)c(C)c2c1 (stereo not given) | active: 14.1 µM |
| O=C(NCc1cccc(C(F)(F)F)c1)c1cc(-c2ccccc2)nn1CC1CC(c2cccnc2)=NO1 (stereo not given) | inconclusive: 100 µM [inhibitor, single point] |
| Cc1cccc(/C=N/NC(=O)CNc2cccc3ccccc23)n1 | inconclusive: 50.1 µM [inhibitor, partial curve] |
| O=S1(=O)Nc2c(cc(Cl)c3ccc(Cl)nc23)-c2ccccc21 | active: 39.8 µM |
| O=C(Nc1ccc(-c2csc(Nc3ccc(Cl)cc3)n2)cc1)c1cccc(C(F)(F)F)c1 | inconclusive: 50.1 µM [inhibitor, partial curve] |
| CCCCN(C(=O)c1cccc(-n2cccc2)c1)c1c(N)n(CCCC)c(=O)[nH]c1=O | inconclusive: 31.6 µM [inhibitor, full curve] |
| Cn1c(=O)c2c(-c3ccc(Cl)cc3)n(CCc3ccccc3)cc2n(C)c1=O | inconclusive: 50.1 µM [inhibitor, partial curve] |
| c1ccc(-c2nc3cnccn3c2Nc2ccc3c(c2)OCCO3)cc1 | active: 44.7 µM |
| Cc1ccccc1/C=C/C(=O)c1ccc([N+](=O)[O-])o1 | inconclusive: 17.8 µM [inhibitor, full curve] |
| Cc1ccc(CN2CCN(CC3CC4C=CC3C4)CC2)cc1 (stereo not given) | active: 5.62 µM |
| Cc1cc2cc(C(c3nnnn3Cc3ccco3)N3CCc4ccccc4C3)c(=O)[nH]c2cc1C (stereo not given) | inactive |
| COc1cc(CNCCc2c[nH]c3ccccc23)ccc1OCc1ccccc1F | active: 39.8 µM |
| COc1ccc(-c2nc(N)n(C(=O)c3cccs3)n2)cc1 | active: 89.1 µM |

| SMILES | Potency |
| --- | --- |
| CCOC(=O)N1CCC(=NNC(=O)c2ccccc2F)CC1 | inconclusive: 20 µM [inhibitor, partial curve] |
| Cc1cc(NC(=O)c2ccc([N+](=O)[O-])cc2)no1 | inconclusive: 20 µM [inhibitor, partial curve] |
| Cc1ccc(-c2nc(=S)c3c(n2CCN2CCOCC2)CC(C)(C)OC3)cc1 | inconclusive: 89.1 µM [inhibitor, single point] |
| Nc1ccc2oc(-c3cc(Br)ccc3Cl)nc2c1 | inconclusive: 39.8 µM [inhibitor, single point] |
| CCOC(=O)/C(N=Nc1c(C)n(C)n(-c2ccccc2)c1=O)=C(/O)c1ccccc1 | inactive |
| Cn1c(=O)n(C)c2cc(N3CCOCC3)c(NS(=O)(=O)c3cccc(C#N)c3)cc21 | active: 50.1 µM |
| CCC(C)NC(=O)CN(c1ccc(OC)cc1)S(=O)(=O)c1ccccc1 (stereo not given) | inconclusive: 28.2 µM [inhibitor, full curve] |
| Oc1c(CN2CCOCC2)cc(COCc2ccccc2)c2cccnc12 | active: 25.1 µM |
| COc1ccccc1CNC(=O)CCCCn1c(=O)c2ccccc2n(Cc2ccccc2F)c1=O | inactive |
| CCn1ccnc1CN(C)Cc1cn[nH]c1-c1ccc(OC)c(F)c1 | inconclusive: 50.1 µM [inhibitor, partial curve] |
| CC(=O)Nc1cccc(NC(=O)Cn2cnc3c(oc4ccccc43)c2=O)c1 | inconclusive: 50.1 µM [inhibitor, partial curve] |
| Cc1ccc2nc(N(CCCN(C)C)C(=O)COc3ccc(Cl)cc3)sc2c1 | inactive |
| CC/C(=N\NC(=O)c1cccnc1)c1ccc2c(c1)OCCO2 | inconclusive: 2.82 µM [inhibitor, single point] |
| COc1ccccc1C(C)Nc1ccc(S(=O)(=O)N2CCN(C)CC2)cc1[N+](=O)[O-] (stereo not given) | active: 35.5 µM |
| CC1=CC(C)(C)n2c(O)c(N=N)c3c(C)ccc1c32 | active: 44.7 µM |
| CCCOC(=O)c1cc(-c2ccc(/C=C3/C(=O)N(C)C(=O)C(C#N)=C3C)o2)ccc1Cl | active: 56.2 µM |
| CCCC1=Nc2cc(C(=O)N3CCC(C(=O)OCC)CC3)ccc2Sc2ccccc21 | inactive and inconclusive: 63.1 µM [inhibitor, partial curve] |
| CCN=c1scc(-c2ccco2)n1/N=C/c1ccc(O)cc1 | active: 56.2 µM |
| COc1ccc(CN2CCN(C(c3ccc(F)cc3)c3ccc(F)cc3)CC2)c(OC)c1OC | inconclusive: 56.2 µM [inhibitor, partial curve, poor fit] |
| CCN1C(=NCC2CC2)N[C@@H](c2ccccc2)C(C(=O)OC)=C1C | inconclusive: 35.5 µM [inhibitor, single point] |
| O=C(NC(=O)c1ccccc1Cl)C(=O)Nc1ccc(Cl)cc1 | inconclusive: 50.1 µM [inhibitor, partial curve] |
| Cn1nnnc1SCC(=O)NC(=O)Cc1ccccc1 | inconclusive: 3.55 µM [inhibitor, single point] |
| CC(=O)c1ccc(NC(=O)CSc2nnc(Cc3cccn3C)n2-c2ccc(F)cc2)cc1 | inconclusive: 63.1 µM [inhibitor, partial curve, poor fit] |
| CCOC(=O)COn1c(=O)c(=O)n(O)c2ccccc21 | active: 50.1 µM |

| SMILES | Potency |
| --- | --- |
| Cc1csc2nc(COC(=O)c3ccc(NC(=O)C(C)Oc4ccccc4)cc3)cc(=O)n12 (stereo not given) | inconclusive: 89.1 µM [inhibitor, single point] |
| CCOc1ccc(Cn2c(C)nc([N+](=O)[O-])c2SCC(O)CCl)cc1[N+](=O)[O-] (stereo not given) | inactive |
| Cc1c(NC(=O)/C(C#N)=C/c2ccc(-c3cccc(Cl)c3)o2)c(=O)n(-c2ccccc2)n1C | inconclusive: 39.8 µM [inhibitor, partial curve] |
| COc1ccc(-c2noc(CSc3nc4ccccc4[nH]3)n2)cc1OC | inactive |
| COc1cc(/C(C)=N/N2CCN(c3ccccc3OC)CC2)ccc1O | inconclusive: 79.4 µM [inhibitor, partial curve, poor fit] |
| COc1ccc(N2C(=O)C3CC=C(Cl)CC3C2=O)cc1 (stereo not given) | inactive |
| O=[N+]([O-])c1cc2c(cc1C=Nc1ccccc1)OCO2 | inconclusive: 56.2 µM [inhibitor, partial curve] |
| CCc1ccc(-c2nc(NC(=O)c3ccc(OCC(=O)Nc4ccc(F)cc4)c(OC)c3)sc2C)cc1 | inconclusive: 79.4 µM [inhibitor, single point] |
| COC(=O)c1cc(-c2c(-c3cc(OC)c(OC)c(OC)c3)noc2C)cc([N+](=O)[O-])c1 | inconclusive: 56.2 µM [inhibitor, partial curve, poor fit] |
| O=C(Nc1cccc(-c2cn3cccnc3n2)c1)c1ccc2c(c1)OCO2 | inconclusive: 89.1 µM [inhibitor, single point] |
| COC(=O)[C@@]12CCCN1[C@H](c1ccc(-c3ccc(OC)cc3)c(OC)c1)[C@@H]1C(=O)N(C)C(=O)[C@@H]12 | inconclusive: 50.1 µM [inhibitor, partial curve] |
| Cc1c(C(=O)N(Cc2ccccc2)C2CCS(=O)(=O)C2)oc2ccccc12 (stereo not given) | inactive |
| CCOc1ccc(NC(=O)C(c2ccccn2)N(C(=O)CCl)c2ccc(OCC)cc2)cc1 (stereo not given) | inconclusive: 56.2 µM [inhibitor, partial curve] |
| Cc1nnc2sc(COc3ccccc3)nn2c1=O | inactive |
| Brc1ccccc1CN1CCN(Cc2c[nH]c3ccccc23)CC1 | active: 0.794 µM |
| CCOc1cc(N2CCOCC2)c(OCC)cc1NC(=O)CN1CCc2ccccc2C1 | active: 1.41 µM |
| CC(C)c1ccc2oc(-c3cc(N)ccc3O)nc2c1 | inconclusive: 31.6 µM [inhibitor, partial curve] |
| Cc1ccc2nc(-c3ccccn3)c(Nc3ccccc3C)n2c1 | active: 44.7 µM |
| CCCN1CCc2nc(N3CCN(C)CC3)ncc2C1 | inconclusive: 79.4 µM [inhibitor, partial curve] |
| Cn1cccc/c1=N\c1cccc[n+]1C | inconclusive: 35.5 µM [inhibitor, partial curve] |
| CN1CCN(C(=O)CCCN2C(=O)/C(=C/c3ccc(Cl)cc3)SC2=S)CC1 | inconclusive: 31.6 µM [inhibitor, partial curve] |
| CCOC(=O)N1CCC(NC(=O)c2ccc3c(c2)N(Cc2ccccc2C)C(=O)c2ccccc2S3=O)CC1 (stereo not given) | inactive |
